In patent publication US20230120736A1, “ANTI-CD98 ANTIBODIES AND ANTIBODY DRUG CONJUGATES” (AbbVie Inc., priority 2016, published 2023) one finds IC50 data, which are given here for six molecules.

Positions count from the first letter of the chain named.

The chains are these.
B1: Ab13-CZ (conjugate)
VH: QVQLKESGPGLVQPSQTLSLTCTVSGFSLSSYGVIWVRQPPGKGLEWMGIIWANGNTNYNSALKSRLSISRDTSKSQVYLKMNSLQTEDTATYYCARHYYDGTHYYGYFDYWGQGVMVTVSS
VL: DTVMTQTPSSQAVSAGEKVTMSCKSSQSLLYSENKKKYLAWYQQKPGQSPKLLIYWASTRESGVPDRFIGSGSGTDFTLTISSVQAEDLAVYYCQQYYNFPYTFGAGTKLELK
B2: Ab10-CZ (conjugate)
VH: EVQLVESGGGLVQPGRSLKLSCAASGFTFSDYAMAWVRQAPKKSLEWVATIIYDGRGTYCRDSVKGRFTISRDNAKSTLYLQMDSLRSEDTATYYCARQGDGTYHYWGYFDYWGQGVMVTVSS
VL: DIVMTQSPSSLAVSAGETVTINCKSSQSLLSSGNQKNYLAWYQQKPGQSPKLLIYWASTRQSGVPDRFIGSGSGTDFTLTISSVQAEDLAIYYCQQYYDTPYTFGAGTKVDLK
B3: Ab15-CZ (conjugate)
VH: B2 VH with A33T, S44G, C60Y, G100S, H105Y
VL: B2 VL with S31F, S82R, T100S, V110L, D111E
B4: Ab12-CZ (conjugate)
VH: B2 VH with S44G, T50S, C60Y, H105Y, Y109S
VL: B2 VL with Y93H, V110L, D111E
B5: Ab11-CZ (conjugate)
VH: B2 VH with S44G, T50G, C60Y, H105Y
VL: B2 VL with K24R, V110L, D111E
B6: Ab14-CZ (conjugate)
VH: EVKLQQSGDELVRPGASVKISCKASGYTFTSYSMHWVKERPGQGLEWIGAIFPIIGTTEYNQKFKGKATLTADKSSNTANMELSRLTSEDSAVYYCARVYLSYFDYWGQGVMVTVSS
VL: DIQMTQSPSFLSASVGDRVTINCKASQNINKYLDWYQRKHGEAPKLLIYNTNNLQTGIPSRFSGSGSGTDYTLTISSLQPEDVATYFCLQHSSRYTFGAGTKLELK

For this assay, the system named is Molt-4 human acute lymphoblastic leukemia cell line. Description: Growth inhibition assay (CellTiter-Glo). The conditions noted are these: 2-days treatment, 3000 cells per well, read-out: ADC potency, IC50, Molt-4. The format is cell-based.
The term IC50 denotes the concentration that inhibits the measured activity by half. For B1, the IC50 worked out at 0.38 nM. The value for B2 was 0.047 nM; that for B3 was 0.071 nM. For the molecule B4, the IC50 turned out to be 0.087 nM. To B5 belongs 0.279 nM; to B6, 0.025 nM.
